Assay [1] relates to experimental autoimmune encephalomyelitis (EAE) model of MS. The assay can be described thus: EAE model of MS, daily disease score, treatment from day 17. The class given is in vivo, female C57BL/6 mice.
Assay [2] has the same test system. Kind of assay: EAE model of MS in male mice, treatment from disease onset. The settings on record: 0.01 mg/kg i.p. daily from disease onset. The format is in vivo, male C57BL/6 mice.
For assay [3] the test system is unchanged.
The mark [4] stands for this setting: treated before disease onset, 0.3, 0.1 or 0.03 mg/kg i.p. daily from day 17.
Where [5] appears, read: 0.003-0.1 mg/kg i.p. daily from disease onset.
Setting [6] is: nalfurafine 0.01 mg/kg i.p. daily, clemastine fumarate 10 mg/kg i.p., from disease onset.

Like-named read-outs stand apart in the source and are kept apart here. Where only a bound is given, the exact number is not on record here.

As for `CN(C(=O)/C=C/c1ccoc1)[C@@H]1CC[C@@]2(O)[C@H]3Cc4ccc(O)c5c4[C@@]2(CCN3CC2CC2)[C@H]1O5` [nalfurafine, (E)-N-[(4R,4aS,7R,7aR,12bS)-3-(cyclopropylmethyl)-4a,9-dihydroxy-1,2,4,5,6,7,7a,13-octahydro-4,12-methanobenzofuro[3,2-e]isoquinoline-7-yl]-3-(furan-3-yl)-N-methylprop-2-enamide], in assay [1] (0.3, 0.1, 0.03 or 0.01 mg/kg i.p. daily from day 17, over 45 days), the “disease score (0-5), recovery from paralysis” value was “recovery from paralysis, which is complete at some doses (0.1 and 0.03 mg/kg)”. Besides, the “total disability (AUC of daily disease score)” value in assay [1] (0.3, 0.1 or 0.03 mg/kg i.p. daily from day 17, by day 45) is on record as “significantly lower total disability”; in assay [1] (doses of 0.03 and 0.1 mg/kg i.p. daily from day 17), “greatest effect at reducing disability”. Also, the “dose at which nalfurafine shows the most rapid recovery” value in assay [1] (i.p. daily from day 17 (Example 1)) came to 0.1 mg/kg; in assay [3] (i.p. daily from disease onset (Example 10)) it was 0.01 mg/kg. Further, the onset of disease entry in assay [1] (setting [4]) is on record as “did not alter the onset of disease”. Also, in assay [1] (setting [4]), the “recovery from paralysis (disease score)” value is listed as “rapid recovery from paralysis compared to vehicle-treated mice”. The “disease score, functional recovery from paralysis” value in assay [2] is “effective at enabling functional recovery from paralysis in both females and males”. Further, the “number of days in recovery” value is “enables a sustained functional recovery” in assay [2], “enables a sustained functional recovery” in assay [3] (setting [5]) and “have a sustained recovery” in assay [3] (setting [6]). The “percentage of mice recovered (score ≤0.5 by day 23)” value in assay [2] is reported as “promotes full recovery”. In addition, the “disease score, recovery” value was “does not enhance recovery” in assay [3] (0.01 mg/kg i.p. daily for only four days from disease onset) and “does enhance recovery effectively” in assay [3] (0.01 mg/kg i.p. daily throughout the experimental course). The “percentage of mice recovered (score ≤0.5 by day 23 post treatment initiation)” value in assay [3] (setting [5]) is reported as 0.003-0.1 mg/kg all show a significant effect. In assay [3] (0.3, 0.1, 0.03, 0.01 or 0.003 mg/kg i.p. daily from disease onset), the “peak disease score during the first EAE episode” value is on record as “no difference in peak disease score was found at any dose”. In assay [3] (0.3, 0.1, 0.03, 0.01 or 0.003 mg/kg i.p. daily from disease onset (score ≥1)), the “disease score, recovery from paralysis” value is “recovery from paralysis, which is complete at some doses (0.01 and 0.03 mg/kg)”. Moreover, the “Mouse dose for EAE (effective dose shown in FIG. 10)” value in assay [3] (i.p. daily from disease onset) was determined as 3 µg/kg/day. Further, the “disease score reached (full recovery)” value in assay [3] (in the examples described, except the short 4-day course) is below 0.5. Moreover, in assay [3] (setting [6]), the “percentage of mice recovered (score <0.5 by day 23)” value is “all of the mice recover”. The “disease score, functional recovery” value in assay [3] (nalfurafine 0.01 mg/kg i.p. daily, clemastine fumarate 10 mg/kg i.p., from disease onset, separate experiments) was “superior to clemastine fumarate in this model”.

The values are drawn from patent US12318380B2, “Treatment of demyelinating diseases” (priority 2018, dated 2025).
